About 14,000 (4.5%) of roughly 310,000 compounds showed an effect of 50% or more. The effect is printed as a negative number. This is one part of the list.
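Also: peak tail current of the secondary pulse compared with the same well before compound.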

This experiment deals with human ether-à-go-go-related gene (hERG) potassium channel (human, UniProt Q12809). The experiment is described as follows: primary screen, population patch clamp on CHO cells stably expressing hERG.
Sequence of human ether-à-go-go-related gene (hERG) potassium channel (Q12809 whole entry, looked up): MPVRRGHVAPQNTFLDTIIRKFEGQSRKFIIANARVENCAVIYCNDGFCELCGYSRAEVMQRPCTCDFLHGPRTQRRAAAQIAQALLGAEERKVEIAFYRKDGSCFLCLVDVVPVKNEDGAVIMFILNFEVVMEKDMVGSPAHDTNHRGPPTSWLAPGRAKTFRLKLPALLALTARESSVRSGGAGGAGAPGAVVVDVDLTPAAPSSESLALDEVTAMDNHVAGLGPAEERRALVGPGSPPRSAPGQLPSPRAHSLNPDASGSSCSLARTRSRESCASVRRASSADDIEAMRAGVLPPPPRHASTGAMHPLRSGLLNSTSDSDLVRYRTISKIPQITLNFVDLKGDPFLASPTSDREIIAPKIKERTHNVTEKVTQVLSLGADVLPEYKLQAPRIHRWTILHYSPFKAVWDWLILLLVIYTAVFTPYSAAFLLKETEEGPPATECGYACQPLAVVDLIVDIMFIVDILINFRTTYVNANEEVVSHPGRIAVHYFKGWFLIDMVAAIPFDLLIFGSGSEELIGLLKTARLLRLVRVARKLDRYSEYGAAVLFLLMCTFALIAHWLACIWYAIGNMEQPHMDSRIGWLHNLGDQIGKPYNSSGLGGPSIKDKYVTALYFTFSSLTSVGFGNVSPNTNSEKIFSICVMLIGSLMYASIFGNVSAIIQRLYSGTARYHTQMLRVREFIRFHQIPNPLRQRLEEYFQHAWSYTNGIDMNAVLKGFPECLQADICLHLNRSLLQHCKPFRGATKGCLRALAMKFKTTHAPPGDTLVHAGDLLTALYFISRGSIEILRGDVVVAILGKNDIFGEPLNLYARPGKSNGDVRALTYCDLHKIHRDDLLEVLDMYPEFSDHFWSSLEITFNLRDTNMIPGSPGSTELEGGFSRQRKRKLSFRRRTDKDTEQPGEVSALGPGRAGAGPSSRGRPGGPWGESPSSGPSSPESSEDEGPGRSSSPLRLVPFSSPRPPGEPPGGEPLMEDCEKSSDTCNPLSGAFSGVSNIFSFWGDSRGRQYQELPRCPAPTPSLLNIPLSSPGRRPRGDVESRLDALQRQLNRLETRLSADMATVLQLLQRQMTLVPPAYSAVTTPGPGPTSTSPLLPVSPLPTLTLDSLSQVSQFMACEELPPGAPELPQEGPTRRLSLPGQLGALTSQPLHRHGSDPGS
As to `N#CC1=C(N)N2C(=C(C#N)C13CCCC3)Nc1ccccc12`, the “hERG current change (%, negative = inhibition) at 10uM” value is listed as 8.94%.

Take `COC(=O)c1ccccc1NC(=O)Oc1ccc(F)cc1`: the “hERG current change (%, negative = inhibition) at 10uM” value is listed as -2.77%.

Regarding `CCOc1ccc(Br)cc1/C=N/O`, the “hERG current change (%, negative = inhibition) at 10uM” value is given as -4.29%.

In the case of `N#Cc1ccc[n+](CC(=O)c2ccc(NC(=O)c3ccccc3)cc2)c1.[Br-]`, the “hERG current change (%, negative = inhibition) at 10uM” value is on record as -38.1%.

`CCCCN(C(=O)CCC(=O)Nc1cc(C)on1)C(C(=O)NC1CCCC1)c1ccccc1OCC` (centres unmarked): the “hERG current change (%, negative = inhibition) at 10uM” value is given as -18.8%.

Take `CCN(C(=O)COc1cc(=O)n(C)c2ccccc12)c1cccc(Cl)c1`: the “hERG current change (%, negative = inhibition) at 10uM” value was -22.2%.

With `Cc1ccc(CNS(=O)(=O)c2cc3c(cc2C)NC(=O)CO3)cc1`, the “hERG current change (%, negative = inhibition) at 10uM” value was -39.8%.

With `Cc1ccc(C)c2[nH]c(=O)c(CN(Cc3cccs3)C(=S)NCc3ccco3)cc12`, the “hERG current change (%, negative = inhibition) at 10uM” value was -33%.

As to `COc1ccccc1-c1ccc(=O)n(CC(=O)NC(C)(C)C)n1`, the “hERG current change (%, negative = inhibition) at 10uM” value is 14%.

`COc1ccc(C(=O)NCc2ccc(S(N)(=O)=O)cc2)cc1[N+](=O)[O-]`: the “hERG current change (%, negative = inhibition) at 10uM” value was found to be 24.9%.

Consider `COc1ccc(C(=S)NCS(=O)(=O)c2ccc(C)cc2)cc1`, for which the “hERG current change (%, negative = inhibition) at 10uM” value was -2%.

Turning to `COc1ccc(OC)c(NC(=O)Nc2cc(C(=O)O)ccc2C)c1`, the “hERG current change (%, negative = inhibition) at 10uM” value came to 13.1%.

Take `CC(=O)c1c(OC(=O)c2cccc(Cl)c2)c2ccccc2n1C`: the “hERG current change (%, negative = inhibition) at 10uM” value is 1.11%.

On to `Cc1nc(-c2cc(C#N)c(Sc3ccc(Cl)cc3Cl)nc2C)cs1`, for which the “hERG current change (%, negative = inhibition) at 10uM” value stood at 8.09%.

Take `CCO[C@H]1OC(C(=O)NCc2nc3ccccc3[nH]2)=C[C@@H](C)[C@@H]1CCCO`: the “hERG current change (%, negative = inhibition) at 10uM” value worked out at 2.83%.

On to `O=C(CSCc1cnn(-c2ccccc2)c1-n1cccc1)NCc1cccnc1`, for which the “hERG current change (%, negative = inhibition) at 10uM” value is -45.5%.

As for `O=C(CSc1n[nH]c(-c2ccccc2)n1)Nc1ccccc1O`, the “hERG current change (%, negative = inhibition) at 10uM” value is reported as 17%.

On to `CSc1sc(C(=O)NNC(C)=O)c2c1C=CCC2`, for which the “hERG current change (%, negative = inhibition) at 10uM” value turned out to be 12.6%.

For `Cc1ccc(CN2C3CCCC2CC(NC(=O)c2ccc(C)cc2)C3)cc1` (centres unmarked), the “hERG current change (%, negative = inhibition) at 10uM” value is listed as -77.7%.

In the case of `CC(C)(C)c1ccc(C(=O)N2CCNCC2)cc1.Cl`, the “hERG current change (%, negative = inhibition) at 10uM” value was -16.7%.

For the compound `CCn1cc(C(=O)OCC(=O)c2cc(C)n(-c3cccc(C(F)(F)F)c3)c2C)c(=O)c2ccc(C)nc21`, the “hERG current change (%, negative = inhibition) at 10uM” value is listed as -3.95%.

`COc1ccc(C(=O)NC2CCN(S(=O)(=O)c3ccccc3)CC2)cc1`: the “hERG current change (%, negative = inhibition) at 10uM” value turned out to be 12.5%.

For the compound `CCCCn1c(NC(=O)c2ccccc2Cl)c(C#N)c2nc3ccccc3nc21`, the “hERG current change (%, negative = inhibition) at 10uM” value worked out at 9.41%.

In the case of `S=c1[nH]nc(-c2cccs2)n1Cc1ccccc1`, the “hERG current change (%, negative = inhibition) at 10uM” value was 9%.

Turning to `C/C(N)=C(/C#N)C(=O)COC(=O)CSc1ccc2ccccc2c1`, the “hERG current change (%, negative = inhibition) at 10uM” value is recorded as 4.78%.

Regarding `CCOC(=O)c1sc(NC(=O)CSc2nnnn2-c2ccc(C)cc2)c(C(=O)OCC)c1C`, the “hERG current change (%, negative = inhibition) at 10uM” value is recorded as 5.35%.

Consider `CCN1C(=O)/C(=C2/Sc3ccc(OC)cc3N2C)SC1=Nc1cccc(O)c1`, for which the “hERG current change (%, negative = inhibition) at 10uM” value came to 15.6%.

For `O=C(COc1ccc(S(=O)(=O)N2CCCC2)cc1)NCCC1=CCCCC1`, the “hERG current change (%, negative = inhibition) at 10uM” value is -20.7%.

In the case of `COc1cc(/C=C2/SC(=O)NC2=O)ccc1OC(=O)c1ccco1`, the “hERG current change (%, negative = inhibition) at 10uM” value is on record as -0.00422%.

Consider `O=C(COc1ccc(-n2ccnc2)cc1)Nc1cccc(Cl)c1`, for which the “hERG current change (%, negative = inhibition) at 10uM” value is reported as -38.9%.

Regarding `Cc1csc(/C(=N/OC(=O)c2ccco2)C(N)=O)n1`, the “hERG current change (%, negative = inhibition) at 10uM” value is given as -1.32%.

`CN(Cc1c(C(=O)N(C)Cc2ccccc2)nc2ccccn12)CC1Cc2ccccc2O1` (centres unmarked): the “hERG current change (%, negative = inhibition) at 10uM” value is listed as -47.3%.

`COc1ccc(OCc2nnc(SCC(=O)NCc3ccco3)o2)cc1`: the “hERG current change (%, negative = inhibition) at 10uM” value is -14.4%.

In the case of `O=C(Nc1ccnn1C1CCN(Cc2ccc(CO)o2)CC1)c1ccccc1Cl`, the “hERG current change (%, negative = inhibition) at 10uM” value is -0.636%.

Consider `CCN1C(=O)C(O)(C2COC(C)(C)CC2=O)c2ccccc21` (centres unmarked), for which the “hERG current change (%, negative = inhibition) at 10uM” value came out at 21.4%.

In the case of `CC(=O)c1c(O)c2ccccc2n(C2CCCCC2)c1=O`, the “hERG current change (%, negative = inhibition) at 10uM” value stood at 1.47%.

`COc1ccc(NC2CCCN(C(=O)c3ccccc3C(F)(F)F)C2)cc1` (centres unmarked): the “hERG current change (%, negative = inhibition) at 10uM” value was determined as 3.23%.

Take `COc1ccc(-c2nnc(SC(C)C(=O)Nc3nccs3)n2-c2ccccc2)cc1OC` (centres unmarked): the “hERG current change (%, negative = inhibition) at 10uM” value is given as -6.58%.

Turning to `COc1ccccc1NC(=O)C(C)OC(=O)COc1cccc2c1OC(C)(C)C2` (centres unmarked), the “hERG current change (%, negative = inhibition) at 10uM” value was -8.46%.

Regarding `CCOC(=O)N1CCC(NC(=O)c2cc(C(=O)NCc3cccc(Cl)c3)ccc2CO)CC1`, the “hERG current change (%, negative = inhibition) at 10uM” value is given as 0.828%.

In the case of `CC(=O)c1cc(OC(=O)N2CCOCC2)ccc1OC(=O)N1CCOCC1`, the “hERG current change (%, negative = inhibition) at 10uM” value is given as -3.71%.

Turning to `CN(C)CCCn1c(SCC(=O)N2CC(=O)Nc3ccccc32)nc2ccccc2c1=O`, the “hERG current change (%, negative = inhibition) at 10uM” value is -17.6%.

On to `Cc1cccc(OC(=O)c2cccnc2)c1`, for which the “hERG current change (%, negative = inhibition) at 10uM” value is 15.1%.

With `Cc1ccc(S(=O)(=O)N2CCc3ccccc3C2CC(=O)O)cc1` (centres unmarked), the “hERG current change (%, negative = inhibition) at 10uM” value was found to be 1.68%.

On to `CC(C)c1ccc(C(=O)NNC(=O)C2CC=CCC2C(=O)O)cc1` (centres unmarked), for which the “hERG current change (%, negative = inhibition) at 10uM” value is -2.41%.

Regarding `CCc1nc2oc3ccccc3c(=O)c2cc1C(=O)OC`, the “hERG current change (%, negative = inhibition) at 10uM” value worked out at 11.3%.

Consider `O=C(CSc1ccccn1)Nc1cccc(NC(=O)CSc2ccccn2)n1`, for which the “hERG current change (%, negative = inhibition) at 10uM” value is -11.9%.

Regarding `Cl.N#CCCNCC1(c2ccccc2)CCCC1`, the “hERG current change (%, negative = inhibition) at 10uM” value worked out at 12.7%.

Take `COc1cc(NC(=O)c2sc(C)nc2C)c(OC)cc1NC(=O)c1ccccc1`: the “hERG current change (%, negative = inhibition) at 10uM” value was -10.5%.

Take `O=C(Nc1nc(-c2ccccc2)cs1)c1ccc2c(c1)S(=O)(=O)c1ccccc1C2=O`: the “hERG current change (%, negative = inhibition) at 10uM” value stood at 25.9%.

In the case of `CNC(=S)N1CCC(NC(=O)C23CC4CC(CC(C4)C2)C3)CC1`, the “hERG current change (%, negative = inhibition) at 10uM” value was found to be 20.9%.

Turning to `O=C1CC(C(=O)Nc2ccccc2)S/C(=N\N=C\c2ccco2)N1` (centres unmarked), the “hERG current change (%, negative = inhibition) at 10uM” value is on record as -10%.

For the compound `COc1ccc(NC(=O)c2c(NC(=O)CCC(=O)O)sc(-c3ccccc3)c2C)cc1`, the “hERG current change (%, negative = inhibition) at 10uM” value turned out to be 5.27%.

Take `COCC(C)n1c(SCC(=O)Nc2sccc2C(N)=O)nc2ccccc2c1=O` (centres unmarked): the “hERG current change (%, negative = inhibition) at 10uM” value is reported as -16.5%.

With `O=c1[nH]c(CN2CCN(c3ccc(F)cc3)CC2)nc2ccccc12`, the “hERG current change (%, negative = inhibition) at 10uM” value was -15.1%.

On to `C#CCNc1c(C)c(C)nc2ncnn12`, for which the “hERG current change (%, negative = inhibition) at 10uM” value was found to be 3.06%.

For the origin of these results see PMC4336329 (PLoS ONE, 2015).
